Structures can show the parent of a compound that is named as a salt. The list shows a part of the results. Single values are uncertain, as repeats are few or missing.
Test system: A549
Experiment: cell-surface PD-L1 MFI ratio relative to radiation alone (isotype-subtracted); higher = higher PD-L1 surface expression
Settings: inducer: radiation 8 Gy; 10 µM; 24 h
Description: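 A549 and H460 NSCLC cells were treated with each library drug at 10 uM, then with radiation (8 Gy) or cisplatin (4 uM), and incubated for 24 h. Cell-surface PD-L1 was measured by flow cytometry as an MFI ratio: (MFI drug+inducer - MFI isotype)/(MFI inducer alone - MFI isotype). Hits were defined as ratio < 0.75.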
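Also: surface PD-L1 on NSCLC cells stained with a PE-labelled anti-human PD-L1 antibody before flow cytometry, screening a library of roughly two hundred mostly kinase and epigenetic inhibitors.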

SMILES	cell-surface PD-L1 MFI ratio
CC1(C)CCC(c2ccc(Cl)cc2)=C(CN2CCN(c3ccc(C(=O)NS(=O)(=O)c4ccc(N[C@H](CCN5CCOCC5)CSc5ccccc5)c(S(=O)(=O)C(F)(F)F)c4)cc3)CC2)C1 [Navitoclax (ABT-263)]	inactive: 2.09
CC1(C)[C@@H](O[C@H]2O[C@H](C(=O)O)[C@@H](O)[C@H](O)[C@H]2O[C@@H]2O[C@H](C(=O)O)[C@@H](O)[C@H](O)[C@H]2O)CC[C@]2(C)[C@H]3C(=O)C=C4[C@@H]5C[C@@](C)(C(=O)O)CC[C@]5(C)CC[C@@]4(C)[C@]3(C)CC[C@@H]12 [Glycyrrhizin (Glycyrrhizic Acid)]	inactive: 0.77
CN(C)c1cccc(-c2c3c(=O)n(-c4ccccc4Cl)[nH]c3cc(=O)n2C)c1	inactive: 0.86
CN1CCN(Cc2ccc(-c3cnc4[nH]cc(-c5ccc6[nH]ccc6c5)c4c3)cc2)CC1	inactive: 1.16
CCCc1cc(C)[nH]c(=O)c1CNC(=O)c1cc(-c2ccc(N3CCN(C(C)C)CC3)nc2)cc2c1cnn2C(C)C	inactive: 1.16
NC(=O)c1ncn([C@@H]2O[C@H](CO)[C@@H](O)[C@H]2O)c1N [AICAR (Acadesine)]	inactive: 0.937
C/C(=C\C(=O)Nc1ccccc1C(=O)O)c1ccc2ccccc2c1	inactive: 1.08
O=C([C@@H](Cc1cccc(C(F)(F)F)c1)NS(=O)(=O)c1cc(F)c2c(c1)CCNC2)N1CCCC1	inactive: 0.866
Cc1[nH]c(/C=C2\C(=O)Nc3ccc(S(=O)(=O)Cc4c(Cl)cccc4Cl)cc32)c(C)c1C(=O)N1CCC[C@@H]1CN1CCCC1	inactive: 2.63
CC(C)N1CCN(Cc2cnc(-c3cc(-c4cccc5[nH]ccc45)cc4[nH]ncc34)o2)CC1	inactive: 0.794
CCc1cnn2c(NCc3ccc[n+]([O-])c3)cc(N3CCCC[C@H]3CCO)nc12	inactive: 0.837
N#Cc1ccc2ncnc(NCCc3ccccc3)c2c1 [Senexin A]	inactive: 0.939
O=C(Nc1ccc2[nH]nc(-c3ccncc3)c2c1)[C@@H]1CCN(CC(=O)N2CCN(c3ccc(-c4ncccn4)cc3)CC2)C1	inactive: 1.08
O=C1CCc2c(Oc3ccc4c(c3)[C@@H]3[C@H](O4)[C@H]3c3nc4cc(C(F)(F)F)ccc4[nH]3)ccnc2N1 [Lifirafenib (BGB-283)]	inactive: 0.934
C[C@]1(c2nc3c(C(N)=O)cccc3[nH]2)CCCN1 [Veliparib (ABT-888)]	active: 0.61
CC(=O)Oc1ccccc1C(=O)O [Aspirin]	active: 0.654
CC1(C)CCC(CN2CCN(c3ccc(C(=O)NS(=O)(=O)c4ccc(NCC5CCOCC5)c([N+](=O)[O-])c4)c(Oc4cnc5[nH]ccc5c4)c3)CC2)=C(c2ccc(Cl)cc2)C1 [Venetoclax (ABT-199, GDC-0199)]	inactive: 1.41
O=C(Nc1cccc2cccnc12)c1ccc(N2C(=O)[C@@H]3[C@H](C2=O)[C@@H]2C=C[C@H]3C2)cc1 [IWR-1-endo]	inactive: 1.08
CC(C)c1c(C(=O)Nc2ccccc2)c(-c2ccccc2)c(-c2ccc(F)cc2)n1CC[C@@H](O)C[C@@H](O)CC(=O)O [Atorvastatin]	inactive: 0.997
O=C(/C=C/c1cncc(F)c1)c1c(-c2ccccc2)c2cc(Cl)ccc2[nH]c1=O	inactive: 2.55
Cc1ccc(C(=O)N(CCCN)[C@@H](c2nc3cc(Cl)ccc3c(=O)n2Cc2ccccc2)C(C)C)cc1	inactive: 1.11
Cc1cnc(NC(=O)Nc2cc(Br)c(C)cc2OC[C@@H]2CNCCO2)cn1	inactive: 0.858
CC(ONC(=O)c1cc(C(F)(F)F)cc(C(F)(F)F)c1)C(=O)Nc1ccc(Cl)cc1 (stereo not given)	inactive: 0.803
c1ccc2c(-c3cnn4cc(-c5ccc(N6CCNCC6)cc5)cnc34)ccnc2c1	inactive: 0.785
CNC(=O)c1ccccc1Sc1ccc2c(/C=C/c3ccccn3)n[nH]c2c1 [Axitinib]	inactive: 1.02
CC[C@H](NC(=O)[C@H](C)NC)C(=O)N1C[C@@H](O)C[C@H]1Cc1c(-c2[nH]c3cc(F)ccc3c2C[C@@H]2C[C@H](O)CN2C(=O)[C@H](CC)NC(=O)[C@H](C)NC)[nH]c2cc(F)ccc12 [Birinapant]	inactive: 0.791
Cc1[nH]c2ccccc2c1CCNCc1ccc(/C=C/C(=O)NO)cc1 [Panobinostat]	inactive: 1.06
Cc1cc(O)c(-c2ccc([C@@H](C)CN)cc2)c2c1[nH]c(=O)c1sccc12 [OTS514 hydrochloride]	inactive: 1.24
Cc1cc(Nc2cc(N)ncn2)c(=O)n2c1C(=O)NC21CCCCC1 [Tomivosertib (eFT-508)]	inactive: 0.807
CCOc1cc2ncc(C#N)c(Nc3ccc(OCc4ccccn4)c(Cl)c3)c2cc1NC(=O)/C=C/CN(C)C [Neratinib (HKI-272)]	inactive: 1.1

— the supplement of paper PMC8792480
